Patent US12268674B2, “Mi-2β inhibitor as an immunotherapy agent” (BioVentures, LLC, priority 2021, dated 2025)
Where two headings read alike, the source gives them in different places.

System: BRaf^V600E/Pten^null melanoma

SMILES: Cn1c(=O)[nH]c2ccc(-c3cccc(C(=O)NC4CCn5ccnc5C4)c3)cc21 (stereo not shown) [Z36-MP5, 3-(3-methyl-2-oxo-2,3-dihydro-1H-benzo[d]imidazol-5-yl)-N-(5,6,7,8-tetrahydroimidazo[1,2-a]pyridin-7-yl)benzamide]
- expression of GZMB, CD69, IFN-γ, CD25 or CD107 in CD8+ T cells (Z36-MP5): increased expression
- mouse survival (Z36-MP5 30 mg/kg once a day in combination with anti-PD-1 10 mg/kg, BRaf^V600E/Pten^null mice): significantly extended mouse survival
- CD8+ T cell population in TILs (Z36-MP5 alone): moderately induced
- CD4+ T cell and Treg populations (Z36-MP5 alone or in combination with anti-PD-1): not affected
- CD8+ T cell population in TILs (Z36-MP5 with anti-PD-1): further augmented
- expression of GZMB, CD69, IFN-γ, CD25 or CD107 in CD8+ T cells (Z36-MP5 with anti-PD-1): further augmented
- mouse lifespan (treatment alone, BRaf^V600E/Pten^null mice): did not extend mouse lifespan
